The values that follow come from PMC4336329 (PLoS ONE, 2015).

Among all 310,000 compounds or so, about 2,200 (0.71%) showed an effect of 50% or more. The effect is printed as a negative number. The list shows a part of the results.

In the test the target is human ether-à-go-go-related gene (hERG) potassium channel (human, UniProt Q12809). Put plainly: primary screen, population patch clamp on CHO cells stably expressing hERG.
Sequence of human ether-à-go-go-related gene (hERG) potassium channel (Q12809 whole entry, looked up): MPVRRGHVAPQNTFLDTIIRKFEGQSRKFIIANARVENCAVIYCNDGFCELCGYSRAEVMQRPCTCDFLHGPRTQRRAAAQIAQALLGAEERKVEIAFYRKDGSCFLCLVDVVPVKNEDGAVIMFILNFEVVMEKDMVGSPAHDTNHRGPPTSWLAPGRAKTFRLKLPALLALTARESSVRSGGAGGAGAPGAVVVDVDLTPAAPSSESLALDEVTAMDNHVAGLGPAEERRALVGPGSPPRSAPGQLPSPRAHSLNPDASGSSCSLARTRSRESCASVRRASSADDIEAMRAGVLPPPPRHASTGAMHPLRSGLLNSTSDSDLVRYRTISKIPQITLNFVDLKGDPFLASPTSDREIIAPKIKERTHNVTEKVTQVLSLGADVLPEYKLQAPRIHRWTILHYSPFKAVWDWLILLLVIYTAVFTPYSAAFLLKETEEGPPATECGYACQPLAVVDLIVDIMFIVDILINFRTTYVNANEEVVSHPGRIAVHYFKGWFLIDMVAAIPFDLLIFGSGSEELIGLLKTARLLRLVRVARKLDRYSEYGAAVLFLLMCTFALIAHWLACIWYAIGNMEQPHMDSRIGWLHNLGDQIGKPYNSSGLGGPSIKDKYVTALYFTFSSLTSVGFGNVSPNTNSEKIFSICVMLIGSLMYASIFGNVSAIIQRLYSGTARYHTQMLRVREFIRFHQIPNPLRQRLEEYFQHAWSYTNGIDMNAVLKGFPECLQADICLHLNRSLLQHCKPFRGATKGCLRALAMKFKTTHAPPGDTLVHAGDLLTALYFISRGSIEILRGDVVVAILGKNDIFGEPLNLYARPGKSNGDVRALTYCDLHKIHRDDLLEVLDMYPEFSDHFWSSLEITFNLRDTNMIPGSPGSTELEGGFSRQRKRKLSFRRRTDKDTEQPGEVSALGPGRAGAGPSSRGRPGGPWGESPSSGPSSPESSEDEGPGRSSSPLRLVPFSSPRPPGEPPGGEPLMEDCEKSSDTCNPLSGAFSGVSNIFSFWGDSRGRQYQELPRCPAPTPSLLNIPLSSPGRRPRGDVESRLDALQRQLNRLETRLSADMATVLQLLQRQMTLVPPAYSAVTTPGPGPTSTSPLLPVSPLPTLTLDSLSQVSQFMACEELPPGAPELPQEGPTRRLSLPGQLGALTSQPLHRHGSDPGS
`COc1cccc(Nc2c([N+](=O)[O-])cncc2[N+](=O)[O-])c1`: the “hERG current change (%, negative = inhibition) at 1uM” value worked out at 9.39%.
With `Cl.Cn1nnnc1SCCNCc1cccc2ccccc12` the figure was -3.01%; with `O=C(COC(=O)c1ccncc1)Nc1cccc(Cl)c1`, 3.85%; with `Cc1nc(C)c(C(=O)C2=C(O)C(=O)N(CCCn3ccnc3)C2c2ccc(Cl)cc2)s1` (stereo not drawn), 9.51%.
To `COC(=O)c1ccc(/C=N/NC(=O)C(=O)NCC2CCCO2)cc1` (stereo not drawn) belongs 9.26%; to `O=C(O)C1Cc2ccccc2CN1S(=O)(=O)/C=C/c1ccccc1` (stereo not drawn), 11.1%.
To `COc1ccc(OC)c(NC(=O)CSc2nc(=O)n(CCN3CCOCC3)c3c2CCCC3)c1` belongs 7.85%; to `Cc1ccc(S(=O)(=O)N2CCN(Cc3cc(C(C)(C)C)ccc3O)CC2)cc1`, 15.2%.
Consider `CN1CCN(CC(=O)N2c3ccc(S(=O)(=O)NCCNC(=O)OC(C)(C)C)cc3C(=O)Nc3cccnc32)CC1`, for which the “hERG current change (%, negative = inhibition) at 1uM” value is on record as 4.86%.
To `CCN(CC)S(=O)(=O)c1ccc(NC2=NS(=O)(=O)c3ccccc32)cc1` belongs -8.13%; to `COCCN1CN(S(=O)(=O)c2ccccc2)c2nc3ccccc3nc21`, 5.35%; to `CCc1c(O)nc(SCC(=O)Nc2ccccc2)n(C(C)CC)c1=O` (stereo not drawn), 5.08%.
To `COc1cccc(CNC(=O)CSCc2cnn(-c3ccccc3)c2-n2cccc2)c1OC` belongs -12.8%.
To `CC1CCC2(CC1)NC(=O)N(CC(=O)NC(=O)Nc1ccc3c(c1)OCCO3)C2=O` (stereo not drawn) belongs -2.28%.
As for `N#CCC(=O)N/N=C/c1cc(-c2ccccc2)n(-c2ccc(Cl)cc2)c1-c1ccccc1`, the “hERG current change (%, negative = inhibition) at 1uM” value came out at 9.32%.
`Cc1cc(C)c(S(=O)(=O)c2ccccc2)c(OC(=O)c2c(Cl)cccc2Cl)n1`: the “hERG current change (%, negative = inhibition) at 1uM” value amounted to 10.5%.
With `O=C(CNc1n[nH]c(=O)[nH]c1=O)N/N=C/c1cccnc1` the figure was -4.84%.
With `FC(F)(F)c1ccnc(Sc2n[nH]c(C(F)(F)F)n2)c1`, the “hERG current change (%, negative = inhibition) at 1uM” value was determined as 9.77%.
With `O=C(CC1C(=O)NCCN1Cc1c(F)cccc1Cl)NCCCOc1cccnc1` (stereo not drawn) the figure was 29.8%; with `O=C(CCc1nnc2n(Cc3ccccc3)c(=O)c3ccccc3n12)NCCN1CCOCC1`, 3.25%; with `O=C(COC(=O)COc1ccc(Cl)cc1Cl)Nc1cccnc1Cl`, 15.5%.
To `O=C(Oc1ccc2ccccc2c1)c1ccccc1` belongs -8.2%; to `O=C(O)c1ccccc1C(=O)Nc1ccc(S(=O)(=O)Nc2nccs2)cc1`, 7.39%; to `COc1ccc([C@@H]2COc3c(ccc4c3C=CC(C)(C)O4)C2)c(OC)c1`, 16.7%.
Turning to `Cc1ccc(NS(=O)(=O)c2c(C(=O)N3CCCCCC3)c(C)n(C)c2C)c(C)c1`, the “hERG current change (%, negative = inhibition) at 1uM” value was 10.7%.
As for `COc1ccc(C(=O)C[n+]2cccc(C)c2C)cc1[N+](=O)[O-].[Br-]`, the “hERG current change (%, negative = inhibition) at 1uM” value is reported as 2.73%.
With `CCN1CCN(c2ncnc3scc(-c4ccc(C)cc4)c23)CC1` the figure was 3.26%; with `CC(C)(C)OC(=O)CC12CCCCC1NC(=O)O2` (stereo not drawn), 11.7%.
To `CCOC(=O)C1CCN(C(=O)c2ccc(Br)o2)CC1` belongs 8.45%; to `Cc1ccc(C(=O)NNC(=O)CCC(=O)Nc2cccc(Cl)c2C)cc1`, 3.03%; to `O=C(OCc1ccc([N+](=O)[O-])cc1)C1CC(=O)N(c2ccccc2)C1` (stereo not drawn), -36%.
On to `O=C(O)CC1=C(c2ccc(F)cc2)CCC1=O`, for which the “hERG current change (%, negative = inhibition) at 1uM” value was determined as 15.3%.
With `CC1=C(C(=O)OC2CCCCC2)C(c2ccccc2)NC(=O)N1` (stereo not drawn) the figure was 10.9%; with `S=C(NCc1ccccn1)Nc1ccccc1Cl`, 6.1%.
With `Cc1ccc(S(=O)(=O)n2ccc3c(OCCOCCSCC(NC(=O)OC(C)(C)C)C(=O)O)cccc32)cc1` (stereo not drawn) the figure was 11.1%; with `Cc1scc(C(=O)Nc2ccon2)c1-c1ccccc1`, 5.54%.
With `O=C(NNC(=S)Nc1ccc(Cl)cc1Cl)c1cccnc1`, the “hERG current change (%, negative = inhibition) at 1uM” value came out at 9.93%.
With `COc1cccc(S(=O)(=O)NCc2ccc(C(=O)NCc3ccccn3)cc2)c1` the figure was 0.029%; with `COc1ccc(C(=O)OCC(=O)c2c[nH]c3ccccc23)cc1OC`, 11.7%.
To `CCCCCN(C(=O)CCC(=O)OCC(=O)N(C)Cc1ccccc1C)c1c(N)n(CCCC)c(=O)[nH]c1=O` belongs 11.4%.
For `O=C(N/N=C/c1cccs1)c1cncc(Br)c1`, the “hERG current change (%, negative = inhibition) at 1uM” value is listed as 1.1%.
With `COc1cccc(NC(=O)CN(C)C(=O)c2cc(-c3ccc(C)o3)nc3ccccc23)c1` the figure was 8.81%; with `COc1ccc(OC)c(N=C2SCCCN2C(=O)c2ccc(N3C(=O)CCC3=O)cc2)c1`, 13.1%; with `CCOC(=O)c1sc(NC(=O)C(C)(C)C)cc1C`, 17.5%.
For `Cc1cc(=O)oc2ccc(OC(C)C(=O)O)cc12` (stereo not drawn), the “hERG current change (%, negative = inhibition) at 1uM” value is recorded as 11.9%.
On to `COc1ccc(CN(C)CC(=O)Nc2sc3c(c2C#N)CCC3)c(OC)c1`, for which the “hERG current change (%, negative = inhibition) at 1uM” value worked out at 11.1%.
With `Cn1c(SCC(=O)Nc2ccccc2F)nc2c(c1=O)SCC2` the figure was 11.4%.
With `O=C(CSCC(=O)N1CCOCC1)Nc1ccccc1` the figure was 1.78%.
As for `O=C(Nc1ccc(C(O)(C(F)(F)F)C(F)(F)F)cc1)c1ccc(Cl)c([N+](=O)[O-])c1`, the “hERG current change (%, negative = inhibition) at 1uM” value stood at 13.1%.
With `C/C(=C\C(=O)c1ccc(F)cc1)Nc1ccc(N2CCOCC2)cc1` the figure was 7.27%.
With `COc1cc(CNCC(O)c2ccccc2)ccc1OCc1ccc(Cl)nc1.Cl` (stereo not drawn) the figure was -19.2%; with `COc1ccc(C(c2c(C)[nH]n(C(N)=S)c2=O)C(C#N)C#N)cc1` (stereo not drawn), 14.7%.
With `O=C(c1cccc(F)c1)N1CCN(c2ccc([N+](=O)[O-])c3cccnc23)CC1` the figure was -31.6%; with `O=C(COC(=O)c1ccc(OC(F)F)cc1)NC(=O)NC1CCCC1`, 7.77%; with `Cc1cc2cc(CNC(=O)C(C)Oc3ccccc3)ccc2n1C` (stereo not drawn), 3.43%.
For the molecule `CN1CCN(CCC(=O)OC2CC3CCC(C2)N3C)CC1.Cl` (stereo not drawn), the “hERG current change (%, negative = inhibition) at 1uM” value was 4.23%.
With `COc1ccc(NS(=O)(=O)CC(C)C)c(OC)c1` the figure was 4.64%.
To `O=C(OCCN1CCCC1=O)c1cncc(Br)c1` belongs 1.6%; to `COc1ccc(S(=O)(=O)N(NC2=NS(=O)(=O)c3ccccc32)C(=O)C(C)C)cc1`, 7.09%; to `Cc1ccc(S(=O)(=O)Nc2cccc(-c3ccc4nncn4n3)c2)cc1`, 16.5%.
To `Cc1c(OCC(=O)NC2CC(C)(C)NC(C)(C)C2)ccc2c1oc(=O)c1ccccc12` belongs -4.3%.
Consider `COc1ccccc1-c1cc(SC)c(C#N)c(=O)o1`, for which the “hERG current change (%, negative = inhibition) at 1uM” value worked out at 14.4%.
With `Cc1ccc(CNC(=O)C(Cc2ccccc2)NS(=O)(=O)c2ccc(Br)s2)cc1` (stereo not drawn) the figure was 8.51%.
With `Cc1ccn2c(C(=O)NN=C3CCN(C)CC3)c(C)nc2c1` the figure was 11.4%; with `O=C(c1cccnc1)N1CCN(Cc2ccc3c(c2)OCO3)CC1`, 1.99%; with `COc1ccc(C(=O)/C=C/Nc2ccc(S(=O)(=O)Nc3nc(C)cc(C)n3)cc2)cc1OC`, 8.31%.
As for `O=C(NCCC1=CCCCC1)c1ccc(CN2CCOCC2)cc1`, the “hERG current change (%, negative = inhibition) at 1uM” value stood at 8.26%.
To `COc1cc2[nH]c(=S)nc(NCc3ccc(Cl)cc3)c2cc1OC` belongs 11.4%.
With `CC(C)c1ccc2oc(=O)cc(CN3CCOCC3)c2c1` the figure was 23.4%; with `Cc1ccccc1CS(=O)(=O)CC(O)CN1CCCC1=O` (stereo not drawn), 7.74%.
To `Cc1ccc(S(=O)(=O)N(C)C)cc1NC(=O)COC(=O)CNC(=O)c1cccs1` belongs 7.33%; to `CCOc1ccccc1NC(=O)CSc1nnc(CNC(=O)COc2ccc(Cl)cc2)o1`, -0.0939%; to `CC(C)OCCCNC(=O)CN1C(=O)COc2ccc(S(=O)(=O)N3CCCCCC3)cc21`, 8.64%.
With `C/C(=N/NC(=O)c1ccc2c(c1)OCO2)c1cccc([N+](=O)[O-])c1`, the “hERG current change (%, negative = inhibition) at 1uM” value worked out at 1.98%.
To `COc1ccc(S(=O)(=O)N(C)c2ccc(C(N)=O)cc2)cc1` belongs -3.05%; to `COC(=O)c1cccc(N2C(=O)c3ccccc3S2(=O)=O)c1`, 9.01%; to `CN1CCc2c1nc1ccccc1c2N.O=C(O)c1cc([N+](=O)[O-])ccc1Cl`, 7.96%.
With `CC1C(=O)OC(c2ccc(Br)cc2)C(C)(C)C1=O` (stereo not drawn) the figure was 13.3%.
To `CCCn1nnc(NC(=S)NC(=O)c2ccc(-c3ccc(Br)cc3)o2)n1` belongs 9.11%; to `COc1ccc(C(=O)NCCC2=CCCCC2)cc1[N+](=O)[O-]`, 7.6%; to `O=C(c1cc(-c2ccncc2)nc2ccccc12)N1CCN(c2ccccn2)CC1`, -64%.
As to `NC(=O)c1ccccc1NC(=O)/C=C/c1ccc(Cl)cc1`, the “hERG current change (%, negative = inhibition) at 1uM” value is recorded as -5.42%.
To `O=C(CN1CCN(c2ccccc2)CC1)Nc1ccccc1C(F)(F)F` belongs 7.22%; to `COc1ccc(C(=O)Nc2ccccc2C)cc1S(=O)(=O)N1CCOCC1`, 9.59%; to `CCCCCCNC(=O)CCc1nc2cccnc2n1Cc1ccc(OC)cc1`, -1.38%.
To `O=C(Nc1c2c(nn1-c1ccccc1)CS(=O)(=O)C2)c1cc2ccccc2o1` belongs -1.86%; to `O=C(O)C1C2C=CC3(O2)C1C(=O)N1c2ccccc2COC13` (stereo not drawn), 14.4%.
